Self-cleavage data for 84 variants are collected here from the RNAGym collection of RNA variant scans (doi:10.1093/nar/gkz1192).

B1: CPEB3 Ribozyme (parent)
chain: UAACAGGGGGCCACAGCAGAAGCGUUCACGUCGCAGCCCCUGUCAGAUUCUGGUGAAUCUGCGAAUUCUGCUGUAUAUCUC

Read counts are not given, so values of variants with three or more changes are uncertain.

The variants in this data set derive from B1. Description: self-cleavage, relative activity (ratio to wild type); higher = more cleavage; in vitro, sequencing. The procedure, abridged: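 CPEB3 self-cleaving ribozyme mutant libraries were made by rounds of error-prone PCR, barcoded, and transcribed in vitro with T7 RNA polymerase for 5 hours at 37°C. Cleavage occurred during transcription and a 15 min DNase I step before EDTA stop. RNAs were reverse transcribed with template switching and Illumina-sequenced, with DNA sequencing mapping barcodes to variants. Relative activity is the variant's cleaved/total read fraction divided by wild type's (minimum 5 reads), averaged across three batches.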
On to A2C A13C A20G U43A A77U, for which the self-cleavage came out at 0.37.

As for A2G A21U A56G, the self-cleavage came to 0.9.

As to A2G A20U U49C U54C C79A, the self-cleavage worked out at 0.24.

U1C U31C C50A U74G: the self-cleavage was found to be 0.71.

Regarding U1C G19A A45C A64U, the self-cleavage was 0.2.

On to U1C A15G A45G G53C, for which the self-cleavage is 0.29.

In the case of A2G A13U A28C, the self-cleavage was 0.39.

U1C G7A A15G A28G C62U U66C: the self-cleavage came to 0.03.

Take U1C A28U A35G: the self-cleavage was 1.28.

In the case of U1C C37A U43G U49C A56G U72C A75G, the self-cleavage was found to be 0.06.

U1C G10A U26A: the self-cleavage was found to be 0.35.

Consider U1C U43C A57G A77G, for which the self-cleavage turned out to be 0.28.

For the variant U1C A13G C32U U72C, the self-cleavage is 0.04.

As for A2C A47G U74C U78A, the self-cleavage is 1.2.

Take A2G A18U C23U U43C A64G: the self-cleavage stood at 0.07.

As to U1C A20G U43G U49A, the self-cleavage came to 0.3.

Regarding U1C A20G U25A, the self-cleavage was found to be 0.26.

A2G A15G U66C: the self-cleavage worked out at 0.41.

Consider U1C A15G C37U A45U G61A, for which the self-cleavage is 0.04.

Regarding A2G A5G U26C U41C U48C U60C A64U, the self-cleavage stood at 0.74.

Take A2G A13C U69A: the self-cleavage worked out at 0.47.

In the case of U1C U26A A56U C71U, the self-cleavage is 0.11.

Regarding U1C A18G U41A, the self-cleavage is 0.4.

U1C G42A A56U: the self-cleavage amounted to 0.19.

For A2G A5G U25C A35G U74C, the self-cleavage was determined as 0.83.

For the variant U1C A35U U60C, the self-cleavage was 0.2.

In the case of U1G A3G U58C U67C C68U, the self-cleavage was 0.15.

Turning to U1C C11G A56U, the self-cleavage worked out at 0.08.

In the case of U1C U54G A56U U78A, the self-cleavage turned out to be 0.21.

As for A2C G7U G16U U41C G52A U69G, the self-cleavage was 0.06.

In the case of U1C U43C U51C U69A U76A, the self-cleavage stood at 0.28.

Take U1C G9C A56G A64G: the self-cleavage amounted to 0.27.

On to A2G A15G A21G U31A U43A, for which the self-cleavage was 0.37.

As for A2G A20G C50A U54C U67C, the self-cleavage is 0.2.

With U1C U41A A56G U66C, the self-cleavage was 0.06.

As to U1C A18U G33A U58C, the self-cleavage was found to be 0.06.

As for U1C U25C C39U A64G U80C, the self-cleavage was 0.07.

With U1C A20U U58C, the self-cleavage is 0.39.

Consider U1C U25C G33A U41A, for which the self-cleavage turned out to be 0.07.

In the case of U1C A18G U25A U54C U60C, the self-cleavage worked out at 0.07.

As for A2G A15U C29A A64G U69C, the self-cleavage worked out at 0.07.

Turning to U1C G8A U26A A47U C59U, the self-cleavage is 0.04.

Consider U1C C12G C39U A65U G70A A77U, for which the self-cleavage worked out at 0.03.

As to U1C G16C A18G U25C U49C A56G, the self-cleavage is 0.26.

Take A2G A18U U26G C37U G70A U72C U74C: the self-cleavage came to 0.04.

Take U1C G22A U48C U54C: the self-cleavage stood at 0.14.

As to A2G A15G A20G, the self-cleavage stood at 0.3.

In the case of U1C G9A G24A U80C, the self-cleavage came out at 0.05.

For U1C G7A U31C U43C A47C A77U, the self-cleavage is 0.06.

On to U1C A21G U41C, for which the self-cleavage was determined as 0.49.

Turning to A2G A13G A64G A77G, the self-cleavage was determined as 0.18.

Consider A2G A15G A18U U26C, for which the self-cleavage was determined as 0.09.

For U1C U60C A64U U80C, the self-cleavage was determined as 0.29.

Regarding A2G A3G A20G A28G U69C, the self-cleavage came out at 0.54.

For A2G A20G A21G A47G U69C, the self-cleavage stood at 0.29.

Consider A2G A21G G24U U26A U48C G52C U74C, for which the self-cleavage came out at 0.05.

Take U1C A20G U43C U69C U78C: the self-cleavage was determined as 0.14.

Turning to A2G A15U A28U G33A U43C, the self-cleavage was 0.2.

Regarding A2G A13G U25C A65G, the self-cleavage was found to be 0.2.

Consider U1C U43C A45U U60G U76C, for which the self-cleavage was determined as 0.24.

A2C A47G U58C: the self-cleavage was found to be 0.67.

A2G A20U A21G U41A: the self-cleavage came out at 0.2.

For A2G A5G C11U A47G U49C A64G U66C, the self-cleavage came to 0.07.

As for U1G U58C U69A, the self-cleavage worked out at 0.12.

With U1C U67C U69A, the self-cleavage came to 0.42.

Turning to A2C A47G G55A U66C, the self-cleavage stood at 0.23.

U1C A35G U41C C59A: the self-cleavage came out at 0.77.

For the variant A2G A13G G53A, the self-cleavage was found to be 0.68.

In the case of U1C A15U A18G, the self-cleavage turned out to be 0.19.

For the variant A2G A21G U31A U49C, the self-cleavage is 0.06.

With U1C U25A U43C, the self-cleavage came out at 0.07.

With U1C G9A A21G U67A U72C, the self-cleavage was found to be 0.2.

For U1C U31A A56G U58A U69A, the self-cleavage was determined as 0.15.

Take U1C A18G C62U U80C: the self-cleavage was 0.18.

For the variant U1C G7C A15U U31C G63A U66A U78C, the self-cleavage came out at 0.07.

Turning to A2G A15U U49A U60C, the self-cleavage was determined as 0.14.

As for A2G A5U A35G C37U U49C A64G, the self-cleavage is 0.43.

Turning to A2G A3G A5U A13G A18G U41C, the self-cleavage came to 0.71.

Consider U1C A13C A35U A65G U67C U69A, for which the self-cleavage amounted to 0.08.

On to U1C A35G U80C, for which the self-cleavage amounted to 1.22.

With A2G A20G U41A A57U, the self-cleavage is 0.41.

U1C G10U A20G U69C: the self-cleavage came out at 0.34.

On to U1C G9A A20U A45U G52C A56C U67C, for which the self-cleavage is 0.03.

As to U1C C12G U76C, the self-cleavage amounted to 0.4.
